Test results taken from the supplement of paper PMC10126150.
Sequences with one replicate were seen in a single cluster, so their values are uncertain.
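Further: ATP exposure 15 min at 22 °C before imaging.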

What follows are sequences tested on ATP (assay: switch fluorescence ratio, 500 uM ATP over buffer (Cy3 cluster intensity, sum of 5 cycles each) (fold (ratio)); higher = stronger signal-on switching upon ATP binding; sequences stand for … in TCGTCGGCAGCGTCAGATGTGTATAAGAGACAGTTTTTTTTTTTTTTTTTTTTTTTTT…TC). Conditions: aptamer strand: ATP DNA aptamer (quencher-CACCTGGGGGAGTATTGCGGAGGAAGG + anchor), 100 nM annealed; ATP concentration: 500 uM; one replicate.
Procedure, shortened: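 Per cluster, summed Cy3 intensity from the target cycles was divided by that from the buffer cycles to give the fluorescence ratio, then averaged per switch-domain sequence. Clusters outside 100-1000 RFU were excluded. The Cy3-labelled switching-strand clusters, on a modified Illumina MiSeq flow-cell, were annealed to 100 nM quencher-labelled ATP aptamer and imaged in selection buffer, then after 15 min with 500 uM ATP at 22 °C, for five cycles with NaOH stripping and re-annealing between them.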
For GTCGGATGCA, the switch fluorescence ratio was 1.01. In the case of GTCGGATTAA, the switch fluorescence ratio is reported as 0.981. For GTCGGGGCCT, the switch fluorescence ratio was 1.01. GTCGGGTCTT was tested, and the switch fluorescence ratio was 0.998. With GTCGGGTTGG the switch fluorescence ratio was 1.01. Sequence GTCGGTAACG has a switch fluorescence ratio of 1.05. GTCGGTACGA was tested, and the switch fluorescence ratio was 1.07. GTCGGTCCG showed a switch fluorescence ratio of 1.03. GTCGGTTAGT gave a switch fluorescence ratio of 0.998. GTCGTAAAGT was tested, and the switch fluorescence ratio was 0.997. GTCGTAGAGT was tested, and the switch fluorescence ratio was 0.966. With GTCGTAGGTA the switch fluorescence ratio was 0.989. GTCGTGAGTA showed a switch fluorescence ratio of 0.987. GTCGTTGATG was tested, and the switch fluorescence ratio was 1. GTCGTTGGAC showed a switch fluorescence ratio of 0.992. GTCGTTTGAG was tested, and the switch fluorescence ratio was 0.95. Sequence GTCTACTTCG has a switch fluorescence ratio of 1.03. In the case of GTCTATAGAA, the switch fluorescence ratio is reported as 1. GTCTCACGCC was tested, and the switch fluorescence ratio was 1.07. Work on GTCTCAGCAT yielded a switch fluorescence ratio of 1.5. GTCTCTGTTT was tested, and the switch fluorescence ratio was 0.945. GTCTGGAGTG gave a switch fluorescence ratio of 1.02. In the case of GTCTTAACGC, the switch fluorescence ratio is reported as 0.983. GTCTTAGTTT was tested, and the switch fluorescence ratio was 0.967. Work on GTCTTTAAAG yielded a switch fluorescence ratio of 1.01. GTCTTTATCC gave a switch fluorescence ratio of 1.01. GTGAACATGG was tested, and the switch fluorescence ratio was 0.967. GTGAACGGAC showed a switch fluorescence ratio of 1.2. GTGAAGCCGC gave a switch fluorescence ratio of 1.03. Work on GTGAAGTAAG yielded a switch fluorescence ratio of 0.979. GTGAAGTCAG showed a switch fluorescence ratio of 0.991. GTGAATGAAG showed a switch fluorescence ratio of 1.02. GTGAATTGGA was tested, and the switch fluorescence ratio was 1.01. Work on GTGACACTCA yielded a switch fluorescence ratio of 1.03. For GTGACCCGGC, the switch fluorescence ratio was 1.06. With GTGACGGGGA the switch fluorescence ratio was 0.991. For GTGACTCTTG, the switch fluorescence ratio was 1.01. GTGACTGCCT showed a switch fluorescence ratio of 1.09. Work on GTGAGAAATA yielded a switch fluorescence ratio of 0.987. GTGAGATGCG gave a switch fluorescence ratio of 0.996. Sequence GTGAGGACTG has a switch fluorescence ratio of 0.867. With GTGAGGAGCC the switch fluorescence ratio was 0.96. With GTGAGGATTA the switch fluorescence ratio was 1.02. GTGAGGCCGG showed a switch fluorescence ratio of 1.05. With GTGAGGTGGC the switch fluorescence ratio was 1.1. With GTGAGTAGCA the switch fluorescence ratio was 0.997. GTGATACGTT showed a switch fluorescence ratio of 0.987. In the case of GTGATAGCTG, the switch fluorescence ratio is reported as 0.938. GTGATAGTCG was tested, and the switch fluorescence ratio was 0.957. GTGATCCGAG gave a switch fluorescence ratio of 1.04. GTGATCCTTA showed a switch fluorescence ratio of 0.981. For GTGATCGGTG, the switch fluorescence ratio was 0.946. With GTGATGACGA the switch fluorescence ratio was 1. Sequence GTGATGATTG has a switch fluorescence ratio of 1.02. GTGATGCGTC was tested, and the switch fluorescence ratio was 1. GTGATTGGAA showed a switch fluorescence ratio of 1.06. Sequence GTGATTGTTA has a switch fluorescence ratio of 1.01. GTGCACCTTC was tested, and the switch fluorescence ratio was 1.07. Work on GTGCACTGGA yielded a switch fluorescence ratio of 1.07. Work on GTGCACTTAC yielded a switch fluorescence ratio of 1.37. With GTGCAGCGGC the switch fluorescence ratio was 1.04. Sequence GTGCATTTGC has a switch fluorescence ratio of 0.975. Work on GTGCCAGGGC yielded a switch fluorescence ratio of 0.915. In the case of GTGCCCCGGA, the switch fluorescence ratio is reported as 0.988. GTGCCCGAAA gave a switch fluorescence ratio of 1.07. With GTGCCCTCGT the switch fluorescence ratio was 0.993. In the case of GTGCCTATGC, the switch fluorescence ratio is reported as 1.21. GTGCCTCGGA was tested, and the switch fluorescence ratio was 1.01. Sequence GTGCCTCTT has a switch fluorescence ratio of 1.01. GTGCCTGCTC gave a switch fluorescence ratio of 0.991. GTGCCTGTT was tested, and the switch fluorescence ratio was 1. GTGCGATCGT was tested, and the switch fluorescence ratio was 0.932. GTGCGGACCG was tested, and the switch fluorescence ratio was 1.02. For GTGCGTGCGA, the switch fluorescence ratio was 0.987. With GTGCTGCGTC the switch fluorescence ratio was 1.03. GTGCTGGCGG gave a switch fluorescence ratio of 1.01. Sequence GTGGAAGCTG has a switch fluorescence ratio of 0.958. Sequence GTGGACAAAG has a switch fluorescence ratio of 0.944. With GTGGAGCCTC the switch fluorescence ratio was 1.05. With GTGGAGGAAA the switch fluorescence ratio was 1.04. In the case of GTGGAGGCGG, the switch fluorescence ratio is reported as 0.989. With GTGGAGTCTT the switch fluorescence ratio was 0.999. For GTGGAGTGCG, the switch fluorescence ratio was 0.967. Work on GTGGATACTT yielded a switch fluorescence ratio of 0.992. For GTGGCAGATG, the switch fluorescence ratio was 0.983. For GTGGCCGGAG, the switch fluorescence ratio was 1.02. Work on GTGGCGCCGA yielded a switch fluorescence ratio of 1.01. GTGGCGGGG gave a switch fluorescence ratio of 1.03. GTGGCGGGTT was tested, and the switch fluorescence ratio was 0.976. GTGGCGTGAG was tested, and the switch fluorescence ratio was 0.974. Work on GTGGGAATGA yielded a switch fluorescence ratio of 0.983. Sequence GTGGGAGCCA has a switch fluorescence ratio of 0.993. In the case of GTGGGAGTGT, the switch fluorescence ratio is reported as 0.965. Work on GTGGGATCGG yielded a switch fluorescence ratio of 0.993. Sequence GTGGGCATAT has a switch fluorescence ratio of 1.02. For GTGGGCGCGT, the switch fluorescence ratio was 1. GTGGGGGACC showed a switch fluorescence ratio of 1.03. With GTGGGGTGAG the switch fluorescence ratio was 1.06. In the case of GTGGGGTTCG, the switch fluorescence ratio is reported as 0.971. With GTGGGTAAGT the switch fluorescence ratio was 0.99. Sequence GTGGGTTACG has a switch fluorescence ratio of 1. For GTGGGTTCGT, the switch fluorescence ratio was 1.05. GTGGTAACGC gave a switch fluorescence ratio of 0.978. With GTGGTAAGAG the switch fluorescence ratio was 1. Sequence GTGGTACCAT has a switch fluorescence ratio of 0.997. With GTGGTAGTGC the switch fluorescence ratio was 0.977. Sequence GTGGTCATCT has a switch fluorescence ratio of 0.976. GTGGTCGTCG gave a switch fluorescence ratio of 1.03. GTGGTGCCGT was tested, and the switch fluorescence ratio was 1.1. With GTGGTGCGAG the switch fluorescence ratio was 1.01. Sequence GTGGTGCGGT has a switch fluorescence ratio of 0.998. Sequence GTGGTGCGTG has a switch fluorescence ratio of 0.98. Sequence GTGGTGTGTA has a switch fluorescence ratio of 0.953. Work on GTGTAAAGAA yielded a switch fluorescence ratio of 1.03. GTGTAAGTTA showed a switch fluorescence ratio of 1.01. GTGTACATTT showed a switch fluorescence ratio of 0.982. With GTGTACTATC the switch fluorescence ratio was 1. Work on GTGTAGGCTC yielded a switch fluorescence ratio of 1. In the case of GTGTAGGTG, the switch fluorescence ratio is reported as 1.06. In the case of GTGTAGTTTC, the switch fluorescence ratio is reported as 1. With GTGTCAACA the switch fluorescence ratio was 0.996. GTGTCAACGG gave a switch fluorescence ratio of 0.992. Sequence GTGTCAGGAA has a switch fluorescence ratio of 0.966. Work on GTGTCAGGG yielded a switch fluorescence ratio of 0.999. In the case of GTGTCATCTG, the switch fluorescence ratio is reported as 0.957. With GTGTCATTAC the switch fluorescence ratio was 1.16. GTGTCATTAT gave a switch fluorescence ratio of 1.02. For GTGTCGCAGG, the switch fluorescence ratio was 0.969. In the case of GTGTCGCCTT, the switch fluorescence ratio is reported as 0.992. GTGTCTAACG showed a switch fluorescence ratio of 0.955. GTGTCTAGGG gave a switch fluorescence ratio of 0.947. Sequence GTGTCTAGTC has a switch fluorescence ratio of 1. Work on GTGTCTGCCA yielded a switch fluorescence ratio of 1.05. GTGTGACCCC showed a switch fluorescence ratio of 0.962. In the case of GTGTGATGCC, the switch fluorescence ratio is reported as 0.981. With GTGTGCATCC the switch fluorescence ratio was 0.999. Work on GTGTGCGTAA yielded a switch fluorescence ratio of 1.03. GTGTGGCGGA showed a switch fluorescence ratio of 1.05. GTGTGGGCA gave a switch fluorescence ratio of 1.01. GTGTGGGCGG was tested, and the switch fluorescence ratio was 1.08. Work on GTGTGGGCTA yielded a switch fluorescence ratio of 1.06. Sequence GTGTGGTGGG has a switch fluorescence ratio of 1.01. For GTGTGGTTCA, the switch fluorescence ratio was 0.972. In the case of GTGTGTCAAT, the switch fluorescence ratio is reported as 1.04. In the case of GTGTGTGCTG, the switch fluorescence ratio is reported as 1.1. GTGTTAATAG was tested, and the switch fluorescence ratio was 1.01. Work on GTGTTAGCAG yielded a switch fluorescence ratio of 1.02. GTGTTATGTT was tested, and the switch fluorescence ratio was 1.01. In the case of GTGTTCCCGA, the switch fluorescence ratio is reported as 0.982. GTGTTCCTAG showed a switch fluorescence ratio of 0.989. GTGTTCGTG was tested, and the switch fluorescence ratio was 1.01. Sequence GTGTTCTCA has a switch fluorescence ratio of 1.1. Work on GTGTTGGC yielded a switch fluorescence ratio of 1.03. For GTGTTGGTGG, the switch fluorescence ratio was 1.04. With GTGTTGTAGG the switch fluorescence ratio was 1.01. Sequence GTGTTTTCTC has a switch fluorescence ratio of 1.02. Work on GTGTTTTGCG yielded a switch fluorescence ratio of 0.977. In the case of GTGTTTTTAT, the switch fluorescence ratio is reported as 0.998. With GTTAAAAGCT the switch fluorescence ratio was 1.02. GTTAAAATAG gave a switch fluorescence ratio of 1.05. Sequence GTTAAACTCG has a switch fluorescence ratio of 1.05. GTTAAATAG showed a switch fluorescence ratio of 1.01. GTTAAGTTTG gave a switch fluorescence ratio of 1.01. GTTAATATCG was tested, and the switch fluorescence ratio was 1.01. Sequence GTTAATCAAA has a switch fluorescence ratio of 1. For GTTAATGAGT, the switch fluorescence ratio was 0.967. Work on GTTAATGGTG yielded a switch fluorescence ratio of 0.95. GTTAATTAGT was tested, and the switch fluorescence ratio was 0.991. GTTAATTGAC gave a switch fluorescence ratio of 0.958. In the case of GTTACACGCC, the switch fluorescence ratio is reported as 1.07. With GTTACCTCGA the switch fluorescence ratio was 1.03. Work on GTTACGGATA yielded a switch fluorescence ratio of 1.02. In the case of GTTACTCTC, the switch fluorescence ratio is reported as 0.977. Sequence GTTACTT has a switch fluorescence ratio of 1.05. Work on GTTAGAGCCC yielded a switch fluorescence ratio of 0.963. With GTTAGAGCTT the switch fluorescence ratio was 1.01. For GTTAGATCAC, the switch fluorescence ratio was 0.945. Work on GTTAGCATGA yielded a switch fluorescence ratio of 1.06. GTTAGGAAAC was tested, and the switch fluorescence ratio was 1.04. Sequence GTTAGGGACT has a switch fluorescence ratio of 0.995. For GTTAGTAAGT, the switch fluorescence ratio was 0.98. GTTAGTGACG showed a switch fluorescence ratio of 1.03. GTTAGTTTAA was tested, and the switch fluorescence ratio was 1.02. GTTATCTACG showed a switch fluorescence ratio of 1.04. GTTATGGTTA showed a switch fluorescence ratio of 0.998. For GTTATTGG, the switch fluorescence ratio was 0.992. With GTTATTGTGA the switch fluorescence ratio was 0.986. Work on GTTCACGGTC yielded a switch fluorescence ratio of 1.02. GTTCAGAAGG showed a switch fluorescence ratio of 1.02. In the case of GTTCATAGAA, the switch fluorescence ratio is reported as 1.04. GTTCATATGA was tested, and the switch fluorescence ratio was 1.02. Work on GTTCATGGAC yielded a switch fluorescence ratio of 1. For GTTCATGTCT, the switch fluorescence ratio was 0.996. GTTCCACCAC gave a switch fluorescence ratio of 1.07. Sequence GTTCCAGTTG has a switch fluorescence ratio of 1.04. Work on GTTCCCCCGT yielded a switch fluorescence ratio of 1.49. Sequence GTTCCTCTTT has a switch fluorescence ratio of 1.06. With GTTCCTGCCA the switch fluorescence ratio was 1.12. Work on GTTCGCGTTC yielded a switch fluorescence ratio of 1.15. For GTTCGGCCGA, the switch fluorescence ratio was 0.965.
